Reference: article PMC9911399, “Two distinct binding modes provide the RNA-binding protein RbFox with extraordinary sequence specificity”
Substitutions are numbered along the chain they refer to; changes in the protein carry UniProt numbers. The list shows a part of the results.

B1: AUAUUAG (DNA:RNA)
RNA: GGGAGACCGGAAUUCAGAUUGUCCAUAUUAGUUAAAUCCCGUCGUAGCCACCA
DNA 1: CAATCTGAATTCCGGTCTCCC
DNA 2: TGGTGGCTACGACGGGATT
B2: CUCACGC (DNA:RNA)
RNA: B1 RNA with A25C, A27C, U28A, U29C, A30G, G31C
DNA 1: CAATCTGAATTCCGGTCTCCC
DNA 2: TGGTGGCTACGACGGGATT
B3: GUAGAUU (DNA:RNA)
RNA: B1 RNA with A25G, U28G, U29A, A30U, G31U
DNA 1: CAATCTGAATTCCGGTCTCCC
DNA 2: TGGTGGCTACGACGGGATT
B4: AGGUCGC (DNA:RNA)
RNA: B1 RNA with U26G, A27G, U29C, A30G, G31C
DNA 1: CAATCTGAATTCCGGTCTCCC
DNA 2: TGGTGGCTACGACGGGATT
B5: UAAUCCA (DNA:RNA)
RNA: B1 RNA with A25U, U26A, U29C, A30C, G31A
DNA 1: CAATCTGAATTCCGGTCTCCC
DNA 2: TGGTGGCTACGACGGGATT
B6: UAAGCCA (DNA:RNA)
RNA: B1 RNA with A25U, U26A, U28G, U29C, A30C, G31A
DNA 1: CAATCTGAATTCCGGTCTCCC
DNA 2: TGGTGGCTACGACGGGATT
B7: GACAUCG (DNA:RNA)
RNA: B1 RNA with A25G, U26A, A27C, U28A, A30C
DNA 1: CAATCTGAATTCCGGTCTCCC
DNA 2: TGGTGGCTACGACGGGATT
B8: AGUUACU (DNA:RNA)
RNA: B1 RNA with U26G, A27U, U29A, A30C, G31U
DNA 1: CAATCTGAATTCCGGTCTCCC
DNA 2: TGGTGGCTACGACGGGATT
B9: GGAUAAC (DNA:RNA)
RNA: B1 RNA with A25G, U26G, U29A, G31C
DNA 1: CAATCTGAATTCCGGTCTCCC
DNA 2: TGGTGGCTACGACGGGATT
B10: CAUAACU (DNA:RNA)
RNA: GGGAGACCGGAAUUCAGAUUGUCCCAUAACUUUAAAUCCCGUCGUAGCCACCA
DNA 1: CAATCTGAATTCCGGTCTCCC
DNA 2: TGGTGGCTACGACGGGATT
B11: GAAGCUC (DNA:RNA)
RNA: B1 RNA with A25G, U26A, U28G, U29C, A30U, G31C
DNA 1: CAATCTGAATTCCGGTCTCCC
DNA 2: TGGTGGCTACGACGGGATT
B12: GACAAAA (DNA:RNA)
RNA: B10 RNA with C25G, U27C, C30A, U31A
DNA 1: CAATCTGAATTCCGGTCTCCC
DNA 2: TGGTGGCTACGACGGGATT
B13: GCAACGC (DNA:RNA)
RNA: B1 RNA with A25G, U26C, U28A, U29C, A30G, G31C
DNA 1: CAATCTGAATTCCGGTCTCCC
DNA 2: TGGTGGCTACGACGGGATT
B14: CGGCUUU (DNA:RNA)
RNA: B10 RNA with A26G, U27G, A28C, A29U, C30U
DNA 1: CAATCTGAATTCCGGTCTCCC
DNA 2: TGGTGGCTACGACGGGATT
B15: CAUUGAU (DNA:RNA)
RNA: B10 RNA with A28U, A29G, C30A
DNA 1: CAATCTGAATTCCGGTCTCCC
DNA 2: TGGTGGCTACGACGGGATT
B16: CCAAUGG (DNA:RNA)
RNA: B1 RNA with A25C, U26C, U28A, A30G
DNA 1: CAATCTGAATTCCGGTCTCCC
DNA 2: TGGTGGCTACGACGGGATT
B17: CACGCCC (DNA:RNA)
RNA: B10 RNA with U27C, A28G, A29C, U31C
DNA 1: CAATCTGAATTCCGGTCTCCC
DNA 2: TGGTGGCTACGACGGGATT
B18: AGGCGAA (DNA:RNA)
RNA: B1 RNA with U26G, A27G, U28C, U29G, G31A
DNA 1: CAATCTGAATTCCGGTCTCCC
DNA 2: TGGTGGCTACGACGGGATT
B19: UACCUUA (DNA:RNA)
RNA: B1 RNA with A25U, U26A, A27C, U28C, A30U, G31A
DNA 1: CAATCTGAATTCCGGTCTCCC
DNA 2: TGGTGGCTACGACGGGATT
B20: CCCGGGA (DNA:RNA)
RNA: B10 RNA with A26C, U27C, A28G, A29G, C30G, U31A
DNA 1: CAATCTGAATTCCGGTCTCCC
DNA 2: TGGTGGCTACGACGGGATT
B21: AAAGGUU (DNA:RNA)
RNA: B1 RNA with U26A, U28G, U29G, A30U, G31U
DNA 1: CAATCTGAATTCCGGTCTCCC
DNA 2: TGGTGGCTACGACGGGATT
B22: UACCGCG (DNA:RNA)
RNA: B10 RNA with C25U, U27C, A28C, A29G, U31G
DNA 1: CAATCTGAATTCCGGTCTCCC
DNA 2: TGGTGGCTACGACGGGATT
B23: CGAACAC (DNA:RNA)
RNA: B1 RNA with A25C, U26G, U28A, U29C, G31C
DNA 1: CAATCTGAATTCCGGTCTCCC
DNA 2: TGGTGGCTACGACGGGATT
B24: CGAGUCU (DNA:RNA)
RNA: B10 RNA with A26G, U27A, A28G, A29U
DNA 1: CAATCTGAATTCCGGTCTCCC
DNA 2: TGGTGGCTACGACGGGATT
B25: UCCAGCC (DNA:RNA)
RNA: B10 RNA with C25U, A26C, U27C, A29G, U31C
DNA 1: CAATCTGAATTCCGGTCTCCC
DNA 2: TGGTGGCTACGACGGGATT
B26: GGGUGAA (DNA:RNA)
RNA: B1 RNA with A25G, U26G, A27G, U29G, G31A
DNA 1: CAATCTGAATTCCGGTCTCCC
DNA 2: TGGTGGCTACGACGGGATT
B27: CUAAGAC (DNA:RNA)
RNA: B1 RNA with A25C, U28A, U29G, G31C
DNA 1: CAATCTGAATTCCGGTCTCCC
DNA 2: TGGTGGCTACGACGGGATT
B28: GGGUUCU (DNA:RNA)
RNA: B1 RNA with A25G, U26G, A27G, A30C, G31U
DNA 1: CAATCTGAATTCCGGTCTCCC
DNA 2: TGGTGGCTACGACGGGATT
B29: UGACCCU (DNA:RNA)
RNA: B10 RNA with C25U, A26G, U27A, A28C, A29C
DNA 1: CAATCTGAATTCCGGTCTCCC
DNA 2: TGGTGGCTACGACGGGATT
B30: CCCGGAG (DNA:RNA)
RNA: B1 RNA with A25C, U26C, A27C, U28G, U29G
DNA 1: CAATCTGAATTCCGGTCTCCC
DNA 2: TGGTGGCTACGACGGGATT
B31: GCAGUCG (DNA:RNA)
RNA: B1 RNA with A25G, U26C, U28G, A30C
DNA 1: CAATCTGAATTCCGGTCTCCC
DNA 2: TGGTGGCTACGACGGGATT

These binders were tested against T1, RBFOX1 RRM (Homo sapiens, UniProt Q9NWB1 109-208) (assay: EMSA; HiTS-Eq, 1 nM pool, 10 min; buffer printed only for the single-RNA assays: 10 mM Tris pH 7.5, 150 mM NaCl, 3.4 mM EDTA, 0.001% NP-40, 30 C). Settings: tags: His6 N-terminal (pET28a); label: 5' 32P.
T1 sequence: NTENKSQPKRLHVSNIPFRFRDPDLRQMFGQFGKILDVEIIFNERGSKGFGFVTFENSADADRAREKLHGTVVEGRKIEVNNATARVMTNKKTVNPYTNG
Summary of the method: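 Purified RbFox RRM, wild type or mutant, was incubated for 10 min in 50 µL with 1 nM of a 5′-radiolabelled RNA pool carrying 7 randomized nucleotides, whose flanks were annealed to DNA oligonucleotides, over a series of increasing protein concentrations. Unbound RNA was resolved on 8% native PAGE, cut out, reverse-transcribed, barcoded by PCR and sequenced on an Illumina HiSeq 2500. Relative association constants were derived from changes in read counts for each RNA species versus the control reaction and normalised to the cognate motif.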

Binder	binding signal
B1	0.00629 KA relative to UGCAUGU
B2	0.00572 KA relative to UGCAUGU
B3	0.0081 KA relative to UGCAUGU
B4	0.0178 KA relative to UGCAUGU
B5	0.00387 KA relative to UGCAUGU
B6	0.00675 KA relative to UGCAUGU
B7	0.00949 KA relative to UGCAUGU
B8	0.00822 KA relative to UGCAUGU
B9	0.0108 KA relative to UGCAUGU
B10	0.00164 KA relative to UGCAUGU
B11	0.0103 KA relative to UGCAUGU
B12	0.0028 KA relative to UGCAUGU
B13	0.00878 KA relative to UGCAUGU
B14	0.0187 KA relative to UGCAUGU
B15	0.011 KA relative to UGCAUGU
B16	0.00975 KA relative to UGCAUGU

Binder	binding signal
B17	0.00179 KA relative to UGCAUGU
B18	0.00756 KA relative to UGCAUGU
B19	0.00279 KA relative to UGCAUGU
B20	0.0106 KA relative to UGCAUGU
B21	0.00684 KA relative to UGCAUGU
B22	0.00774 KA relative to UGCAUGU
B23	0.00254 KA relative to UGCAUGU
B24	0.0134 KA relative to UGCAUGU
B25	0.0092 KA relative to UGCAUGU
B26	0.0139 KA relative to UGCAUGU
B27	0.00639 KA relative to UGCAUGU
B28	0.0166 KA relative to UGCAUGU
B29	0.00315 KA relative to UGCAUGU
B30	0.00493 KA relative to UGCAUGU
B31	0.0138 KA relative to UGCAUGU
